Laboratory results published in the RNAGym collection of RNA variant scans (doi:10.1093/nar/gkz1192).
The source gives no read counts; variants with many changes may rest on few reads.

B1: CPEB3 Ribozyme (parent)
chain: UAACAGGGGGCCACAGCAGAAGCGUUCACGUCGCAGCCCCUGUCAGAUUCUGGUGAAUCUGCGAAUUCUGCUGUAUAUCUC

Variants of: B1
Assay: self-cleavage, relative activity (ratio to wild type); higher = more cleavage; in vitro, sequencing
How it was run: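 Relative activity compares each variant's cleaved/total read fraction with that of the unmutated ribozyme. To get these fractions, barcoded CPEB3 ribozyme libraries from rounds of error-prone PCR were transcribed with T7 RNA polymerase for 5 hours at 37°C and then given 15 min of DNase I treatment before EDTA was added. The RNAs were reverse transcribed with template switching and sequenced on Illumina, and DNA sequencing linked barcodes to variants. A minimum of 5 reads applied, and three batches were averaged.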
With UAACAGGGGGCCACAGCAGAAGCGUUCACGUCGCAGCCCCAGUCAGAUUCCGGUGAGUCUGCGAAUUCCGCUGUAUAUCUC the self-cleavage was 0.21. For UAACAGGGGGCCACAGCAGAAGCGUUCACGUCGCAGCCCCAGUCAGAUUCUGGCGAAUCUGCGAAUACUGCUGUAUAUCUC, the self-cleavage was 0.47. UAACAGGGGGCCACAGCAGAAGCGUUCACGUCGCAGCCCCAGUCAGAUUCUGGCGAAUCUGCGAAUUCUGCUGCGUAUCUC gave a self-cleavage of 0.1. Variant UAACAGGGGGCCACAGCAGAAGCGUUCACGUCGCAGCCCCAGUCAGAUUCUGGUGAAACUGCGAAUUCAGCUGUAAAUCUC has a self-cleavage of 0.07. For UAACAGGGGGCCACAGCAGAAGCGUUCACGUCGCAGCCCCAGUCAGAUUCUGGUGAACCUGCGAAUUCUGCAGUAUAUCUC, the self-cleavage was 0.05. UAACAGGGGGCCACAGCAGAAGCGUUCACGUCGCAGCCCCAGUCAGAUUCUGGUGAAUCAGCGGUUUCUGCUGGAUAUCUC showed a self-cleavage of 0.16. Variant UAACAGGGGGCCACAGCAGAAGCGUUCACGUCGCAGCCCCAGUCAGAUUCUGGUGAAUCUGCGAAUCCAGCUGUAUAUCUC has a self-cleavage of 0.27. In the case of UAACAGGGGGCCACAGCAGAAGCGUUCACGUCGCAGCCCCAGUCAGAUUCUGGUGAAUCUGCGAAUCCUGCCGUAUAUCUC, the self-cleavage is reported as 0.15. UAACAGGGGGCCACAGCAGAAGCGUUCACGUCGCAGCCCCAGUCAGAUUCUGGUGAAUCUGCGAAUCCUGCUGGAUAUCUC showed a self-cleavage of 0.33. Work on UAACAGGGGGCCACAGCAGAAGCGUUCACGUCGCAGCCCCAGUCAGAUUCUGGUGAAUCUGCGAAUCCUGCUGUACAUCUC yielded a self-cleavage of 0.08. Work on UAACAGGGGGCCACAGCAGAAGCGUUCACGUCGCAGCCCCAGUCAGAUUCUGGUGAAUCUGCGAAUCCUGCUGUAUACCUC yielded a self-cleavage of 0.17. For UAACAGGGGGCCACAGCAGAAGCGUUCACGUCGCAGCCCCAGUCAGAUUCUGGUGAAUCUGCGAAUUCCGCUGUAUACCUC, the self-cleavage was 0.17. With UAACAGGGGGCCACAGCAGAAGCGUUCACGUCGCAGCCCCCGUCCGAUUCUGGUGAAUCUGCGUAUUCUGCUGCAUAUCAC the self-cleavage was 0.39. UAACAGGGGGCCACAGCAGAAGCGUUCACGUCGCAGCCCCCGUCGGGUUCUGGUGAAUCUGCGAAUUCUGCUGUAUAUCUC showed a self-cleavage of 0.51. UAACAGGGGGCCACAGCAGAAGCGUUCACGUCGCAGCCCCCGUCGGAUUCCGGUGAAUCUGCAAAUUCAGCUGUAUACCUC showed a self-cleavage of 0.39. Variant UAACAGGGGGCCACAGCAGAAGCGUUCACGUCGCAGCCCCCGUCGGAUUCUGGUGAAACUGCGAAUUCUGCCGUAUAUCUC has a self-cleavage of 0.19. UAACAGGGGGCCACAGCAGAAGCGUUCACGUCGCAGCCCCCGUCGGAUUCUGGUGAAUCUGCGAAUCCUGCUGUAUAUCUC gave a self-cleavage of 0.28. Work on UAACAGGGGGCCACAGCAGAAGCGUUCACGUCGCAGCCCCCGUCGGAUUCUGGUGAAUCUGCGAAUUCUGCUGUACUUCUC yielded a self-cleavage of 1.08. Variant UAACAGGGGGCCACAGCAGAAGCGUUCACGUCGCAGCCCCCGUCUGAUUCUGGUGAGUCUGCGAAUUCUGCGGUAUAUCUC has a self-cleavage of 0.48. UAACAGGGGGCCACAGCAGAAGCGUUCACGUCGCAGCCCCCGUCUGAUUCUGGUGAAUCCGCGAAUUCUGCUGUAUACCUC showed a self-cleavage of 0.4. Variant UAACAGGGGGCCACAGCAGAAGCGUUCACGUCGCAGCCCCCGUCUGAUUCUGGUGAAUCUGCGAAUCCUGCUGUGUAUCUC has a self-cleavage of 0.26. With UAACAGGGGGCCACAGCAGAAGCGUUCACGUCGCAGCCCCCGUCUGAUUCUGGUGAAUCUGCGAAUUCUGCUGCAUACCUC the self-cleavage was 1. UAACAGGGGGCCACAGCAGAAGCGUUCACGUCGCAGCCCCCGUCUGAUUCUGGUGAAUCUGCGAAUUCUGCUGUAUAUCAC showed a self-cleavage of 0.64. Variant UAACAGGGGGCCACAGCAGAAGCGUUCACGUCGCAGCCCCCGUCAGGUUCUGGUGAAUCUGCGAAUUCCGCUGUAUAUCUC has a self-cleavage of 0.65. Work on UAACAGGGGGCCACAGCAGAAGCGUUCACGUCGCAGCCCCCGUCAGAUUCUGGUGCAUCUGCGAAUUCUGCUGUGUAUCUC yielded a self-cleavage of 0.43. With UAACAGGGGGCCACAGCAGAAGCGUUCACGUCGCAGCCCCCGUCAGAUUCUGGUGGAUCUGCGUAUUCUGCUGUAUAUCUC the self-cleavage was 0.6. With UAACAGGGGGCCACAGCAGAAGCGUUCACGUCGCAGCCCCCGUCAGAUUCUGGUGGAUCCGCGAAUUCUGCUGUAUAUCAC the self-cleavage was 0.28. Variant UAACAGGGGGCCACAGCAGAAGCGUUCACGUCGCAGCCCCCGUCAGAUUCUGGUGUAUCUGCGAACUCUGCUGUAUAUCUC has a self-cleavage of 0.47. Work on UAACAGGGGGCCACAGCAGAAGCGUUCACGUCGCAGCCCCCGUCAGAUUCUGGUGAGUCUGCGAAUUCUGCUGUAUAUGUC yielded a self-cleavage of 1.23. For UAACAGGGGGCCACAGCAGAAGCGUUCACGUCGCAGCCCCCGUCAGAUUCUGGUGAGCCCGCGAAUUCUGCUGUAUAUCUC, the self-cleavage was 0.21. In the case of UAACAGGGGGCCACAGCAGAAGCGUUCACGUCGCAGCCCCCGUCAGAUUCUGGUGAUUCUGCGAAUUCUGCUGAAUAUCUC, the self-cleavage is reported as 1.18. With UAACAGGGGGCCACAGCAGAAGCGUUCACGUCGCAGCCCCCGUCAGAUUCUGGUGAAUCUGCGGAUUCUGCUGUUUAACUC the self-cleavage was 1.13. For UAACAGGGGGCCACAGCAGAAGCGUUCACGUCGCAGCCCCCGUCAGAUUCUGGUGAAUCUGCGGAUUCCGCUGUAUAUCUC, the self-cleavage was 0.22. UAACAGGGGGCCACAGCAGAAGCGUUCACGUCGCAGCCCCCGUCAGAUUCUGGUGAAUCUGCGUAUUCAGCUGUAUAUCUC showed a self-cleavage of 0.32. In the case of UAACAGGGGGCCACAGCAGAAGCGUUCACGUCGCAGCCCCCGUCAGAUUCUGGUGAAUCUGCGUAUUCUGCCGUAUAACUC, the self-cleavage is reported as 0.64. UAACAGGGGGCCACAGCAGAAGCGUUCACGUCGCAGCCCCCGUCAGAUUCUGGUGAAUCUGCGAGUUCUGCUGUAUAUCCC showed a self-cleavage of 0.77. With UAACAGGGGGCCACAGCAGAAGCGUUCACGUCGCAGCCCCCGUCAGAUUCUGGUGAAUCUGCGAUCCCUGCUGCAUAUCAC the self-cleavage was 0.37. Variant UAACAGGGGGCCACAGCAGAAGCGUUCACGUCGCAGCCCCCGUUAGAUUCUGGUGGAUCAGCGAAUUCUGCUGGAUAUUUC has a self-cleavage of 0.27. UAACAGGGGGCCACAGCAGAAGCGUUCACGUCGCAGCCCCCGUCAGAUUAUGGUGAAUCUGCGAAUCCCGCUGUAUAUCUC showed a self-cleavage of 0.19. Variant UAACAGGGGGCCACAGCAGAAGCGUUCACGUCGCAGCCCCCGUCAGAUUCUGGUGAAUCUGUGAAUUCUGCCGUAUAUCAC has a self-cleavage of 0.21. UAACAGGGGGCCACAGCAGAAGCGUUCACGUCGCAGCCCCCGUCAGAUUCUGGUGAAUCUGCGAAUUACGCUGUAUAACUC showed a self-cleavage of 0.08. In the case of UAACAGGGGGCCACAGCAGAAGCGUUCACGUCGCAGCCCCCGUCAGAUUCUGGUGAAUCUGCGAAUUAUGCUGUAUAACUC, the self-cleavage is reported as 0.23. UAACAGGGGGCCACAGCAGAAGCGUUCACGUCGCAGCCCCCGUCAGAUUCUGGUGAAUCUGCGAAUUUUGCUGCUUAUCUC gave a self-cleavage of 1.28. For UAACAGGGGGCCACAGCAGAAGCGUUCACGUCGCAGCCCCCAACAGAUUCUGGUGAACCCGCGAAUUCUGCUGUAUAUCUC, the self-cleavage was 0.09. Variant UAACAGGGGGCCACAGCAGAAGCGUUCACGUCGCAGCCCCCGUCAUAUUCUGGUGAAUCUGCGAAUUCUGCUGAAUAUCUC has a self-cleavage of 0.53. In the case of UAACAGGGGGCCACAGCAGAAGCGUUCACGUCGCAGCCCCCGUCAGAUUCUGUUGAACCUGCGAAUUCUGCUGUAUAUCUC, the self-cleavage is reported as 0.6. In the case of UAACAGGGGGCCACAGCAGAAGCGUUCACGUCGCAGCCCCCGUCAGAUUCUGUUGAAUCCGCGAAUUCUGCUGUAUAUCUC, the self-cleavage is reported as 0.89. Variant UAACAGGGGGCCACAGCAGAAGCGUUCACGUCGCAGCCCCCGUCAGAUUCUGGUAAGUCUGCGAAUUCUGCUGUAUAUCUC has a self-cleavage of 0.67. UAACAGGGGGCCACAGCAGAAGCGUUCACGUCGCAGCCCCCGUCAGAUUCUGGUGAAUCUACGAAUUCUGCUGUAUAUCAC showed a self-cleavage of 0.92. Work on UAACAGGGGGCCACAGCAGAAGCGUUCACGUCGCAGCCCCCGUCAGAUUCUGGUGAAUCUGCUAAUUCUGCCGUAUAUCUU yielded a self-cleavage of 1.25. UAACAGGGGGCCACAGCAGAAGCGUUCACGUCGCAGCCCCCGACAGGUUCUGGUGAAUCCGCGAAUUCUGCUGUAUAUCUC gave a self-cleavage of 0.19. With UAACAGGGGGCCACAGCAGAAGCGUUCACGUCGCAGCCCCCGACAGAUUCUGGUGAAUCUUCGAAUUCCGCUGUAUAUCUC the self-cleavage was 0.16. Work on UAACAGGGGGCCACAGCAGAAGCGUUCACGUCGCAGCCCCCGACAGAUCCUGGUGAAUCUGCGAAUUCUGCUGUGUAUCUC yielded a self-cleavage of 0.16. With UAACAGGGGGCCACAGCAGAAGCGUUCACGUCGCAGCCCCCGCCAGGUUCUGGUGAAUCUGCGAGUUCUGCUGUAUAUCUC the self-cleavage was 0.14. With UAACAGGGGGCCACAGCAGAAGCGUUCACGUCGCAGCCCCCGCCAGAUUCUGGUGAAUCUGCGUAUUCUGCUGUAUAUCUC the self-cleavage was 0.15. Work on UAACAGGGGGCCACAGCAGAAGCGUUCACGUCGCAGCCCCCGCCAGAAUCUGGUGAGUCUGCGAAUUCUGCUGUAUAUCUC yielded a self-cleavage of 0.07. UAACAGGGGGCCACAGCAGAAGCGUUCACGUCGCAGCCCCCGCCAGACUCUGGUGAAUCUGCGAAUUCUGCUGUAUAUCUC gave a self-cleavage of 0.49. UAACAGGGGGCCACAGCAGAAGCGUUCACGUCGCAGCCCCCGGCAGAUUCUGGUGAAUCUGCGAAUUCAGUUGUAUAUCUC showed a self-cleavage of 0.27. With UAACAGGGGGCCACAGCAGAAGCGUUCACGUCGCAGCCCCCGUCAGAAUCAGGAGAAUCUGCGAAUUCUGCUGAAUAUCUC the self-cleavage was 0.74. In the case of UAACAGGGGGCCACAGCAGAAGCGUUCACGUCGCAGCCCCCGUCAGAAUCUGGCGAAUCUGCGAACUCUGCUGUAUAUCUC, the self-cleavage is reported as 0.12. Work on UAACAGGGGGCCACAGCAGAAGCGUUCACGUCGCAGCCCCCGUCAGAAUCUGGUGAACCUGCGAAUUCUGCUGUAUAUCUC yielded a self-cleavage of 0.18. Variant UAACAGGGGGCCACAGCAGAAGCGUUCACGUCGCAGCCCCCGUCAGACUCUGGUGAUUCUGCGAACUCUGCUGUAUAUCUC has a self-cleavage of 0.12. Variant UAACAGGGGGCCACAGCAGAAGCGUUCACGUCGCAGCCCCCGUCAGACUCUGGUGAAUCUGCGAAUUCUACUGUAUAUCUC has a self-cleavage of 0.47. For UAACAGGGGGCCACAGCAGAAGCGUUCACGUCGCAGCCCCCGUCAGACUCUGGUGAAUCCGCGGAUACUGCUGUAUAUCUC, the self-cleavage was 0.15. In the case of UAACAGGGGGCCACAGCAGAAGCGUUCACGUCGCAGCCCCCGUCAGACUCUGGUGAAUCUGCGAAUUCUGCUGGAUAUCUC, the self-cleavage is reported as 0.84. In the case of UAACAGGGGGCCACAGCAGAAGCGUUCACGUCGCAGCCCCCGUCAGAUACUGGUGAAUCUGCGAACCCUACUGUAUAUCCC, the self-cleavage is reported as 0.14. For UAACAGGGGGCCACAGCAGAAGCGUUCACGUCGCAGCCCCCGUCAGAUACUGGUGAAUCUGCGAAUUCUGCUGUAUACCUC, the self-cleavage was 0.65. Variant UAACAGGGGGCCACAGCAGAAGCGUUCACGUCGCAGCCCCCGUCAGAUCCUGGUGGAUCUGCGAAUUCUGCUGUAUACCUC has a self-cleavage of 1.21.
